Results: PubChem BioAssay AID485281 (National Center for Advancing Translational Sciences (NCATS), 2010)
The whole screen tested about 350,000 compounds, of which about 260 (0.074%) were called active. The shares of active, inactive and inconclusive entries below differ from those in the screen. Calls follow the shape of the dose curve; as a rule, active = well fitted inhibition curve with a large enough effect; inconclusive = small, poorly fitted or top-dose-only effect; inactive = no such curve, though single readings can be large or run the other way. A potency beside an inconclusive call is a rough fit, not a confirmed value.

Target: Ferritin light chain (Equus caballus) (UniProt P02791)
Assay: qHTS Assay for Identification of Novel General Anesthetics; also: nearly all actives have a fitted effect of over 20% in size
Conditions: apoferritin/1-aminoanthracene competitive binding, fluorescence; activity change, negative = displacement: at 77.5 µM (top of the series)
Summary of the method: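 Steps: apoferritin (10 uM) was premixed with half-saturated 1-AMA in PBS, compounds were pin-transferred, plates stood 10 min at room temperature, fluorescence was read at 380/535 nm, and curves were fitted with a Hill equation.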
% is scaled to controls: 0 for no effect and ±100 for the full control effect; tags tell the direction and shape of the fitted curve.

Sequence of UniProt P02791 (P02791 whole entry, looked up): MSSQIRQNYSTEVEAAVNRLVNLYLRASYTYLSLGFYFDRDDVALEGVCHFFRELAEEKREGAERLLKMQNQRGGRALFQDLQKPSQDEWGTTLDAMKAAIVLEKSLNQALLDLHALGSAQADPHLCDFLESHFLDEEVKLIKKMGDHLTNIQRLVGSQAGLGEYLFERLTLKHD

Question: `CC(C)Cn1c(C23CC4CC(CC(C4)C2)C3)n[nH]c1=S` was tested. Which Potency did it give?
Answer: Its Potency is inconclusive: 31.6 µM [inhibitor, partial curve].

Question: How did the “activity change, negative = displacement” value turn out when `CCN1CCN(C(=O)Cn2c(-c3cccs3)cc3ccccc32)CC1` was run?
Answer: Its value is inactive: -0.266%.

Question: `CC1(C)CN(c2ccc(Br)cc2Br)C1=O` was tested. Which Potency did it give?
Answer: Its Potency is inconclusive: 35.5 µM [inhibitor, single point].

Question: `O=C(Cc1ccc([N+](=O)[O-])cc1)N1CCCCCC1` was tested. Which Potency did it give?
Answer: Its Potency is inconclusive: 20 µM [inhibitor, partial curve].

Question: `COc1cc(C(=O)Nc2cccc(-n3cnnn3)c2)cc(Cl)c1OC` was tested. Which Potency did it give?
Answer: Its Potency is inconclusive: 20 µM [inhibitor, partial curve].

Question: `COc1ccc(C(C)=O)cc1CC(=O)N(Cc1ccccc1)c1ccccc1` was tested. Which Potency did it give?
Answer: Its Potency is inconclusive: 50.1 µM [inhibitor, single point].

Question: Which Potency does the source give for `CC1(C)C(=O)OC(c2ccccc2)C(C)(C)C1=O` (centres undefined) here?
Answer: The Potency was inconclusive: 11.2 µM [inhibitor, partial curve].

Question: For `CCCCN(CCCC)c1ccc(C(=O)c2ccccc2C(=O)O)c(O)c1`, which Potency is on record?
Answer: Its Potency is inconclusive: 28.2 µM [inhibitor, single point].

Question: Which Potency does the source give for `CC(=O)c1c(C)[nH]c(C(=O)OCC(=O)Nc2ccc(Cl)cc2[N+](=O)[O-])c1C` here?
Answer: The Potency was inconclusive: 56.2 µM [inhibitor, single point].

Question: Which “activity change, negative = displacement” value does the source give for `C=CCn1c(N/N=C/c2ccc(O)cc2)nc2ccccc2c1=O` here?
Answer: The value was inactive: -19%.

Question: For `COc1ccc(-c2csc3ncnc(N4CCN(c5cccc(OC)c5)CC4)c23)cc1`, which “activity change, negative = displacement” value is on record?
Answer: Its value is inactive: -1.6%.

Question: For `Cc1cccc(Cn2cnc3c(NS(C)(=O)=O)c(C)c(C)cc32)c1`, which Potency is on record?
Answer: The Potency was inconclusive: 22.4 µM [inhibitor, partial curve].

Question: With `O=C(NCC1CCCCC1)c1cccc([N+](=O)[O-])c1` as the compound, how does the Potency read?
Answer: Its Potency is inconclusive: 44.7 µM [inhibitor, single point].

Question: For `COc1ccc2cc3cc(C(=O)N4CCN(Cc5ccc6c(c5)OCO6)CC4)oc3nc2c1`, which “activity change, negative = displacement” value is on record?
Answer: The value was inactive: -8.38%.

Question: Which Potency does the source give for `CCOC(=O)c1ccc(NS(=O)(=O)c2ccc(SC)cc2)cc1` here?
Answer: The Potency was inconclusive: 50.1 µM [inhibitor, single point].

Question: For `CCc1cccc(NC(=O)c2ccc3c(=O)n4c(nc3c2)CCCCC4)c1`, which Potency is on record?
Answer: The Potency was inconclusive: 50.1 µM [inhibitor, single point].

Question: Which “activity change, negative = displacement” value does the source give for `COc1ccc(/C=C/CN2CCN(Cc3cccc(OC)c3)C(CCO)C2)cc1` (centres undefined) here?
Answer: The value was inactive: -9.31%.

Question: How did the “activity change, negative = displacement” value turn out when `OCCC1CN(C2CSCCSC2)CCN1Cc1ccccc1` (centres undefined) was run?
Answer: The value was inactive: -1.13%.

Question: For `Cc1cc(C)c[n+](C(C)C(=O)c2ccc(-c3ccccc3)cc2)c1` (centres undefined), which “activity change, negative = displacement” value is on record?
Answer: Its value is inactive: -12.2%.

Question: Which Potency does the source give for `Cc1cc(C(=O)COC(=O)C2=NN(c3ccccc3)C(=O)CC2)c(C)n1CC(F)(F)F` here?
Answer: Its Potency is inconclusive: 35.5 µM [inhibitor, single point].

Question: `Cc1cccnc1NC(=S)NC(=O)c1cncc(Br)c1` was tested. Which “activity change, negative = displacement” value did it give?
Answer: Its value is inactive: -12.7%.

Question: `COc1ccc(-c2nc(CS(=O)CC(=O)NC3CCCCC3)c(C)o2)cc1` (centres undefined) was tested. Which Potency did it give?
Answer: Its Potency is inconclusive: 12.6 µM [inhibitor, partial curve].

Question: With `CC1(C)C=C(c2ccc(C=O)s2)CC(C)(C)N1C=O` as the compound, how does the “activity change, negative = displacement” value read?
Answer: The value was inactive: -2.92%.

Question: Which Potency does the source give for `CC(OC(=O)c1ccccc1N1C(=O)C2C3CCC(C3)C2C1=O)C(=O)c1ccccc1` (centres undefined) here?
Answer: The Potency was inconclusive: 39.8 µM [inhibitor, partial curve].

Question: Which Potency does the source give for `CC1(C)Cc2nc3sc4c(=O)n(CC(=O)NCc5ccco5)cnc4c3cc2CO1` here?
Answer: The Potency was inconclusive: 7.94 µM [inhibitor, partial curve].

Question: `CCn1cc(C(=O)NCCc2ccc(OC)c(OC)c2)c(=O)c2cc(S(=O)(=O)N3CCC(C)CC3)ccc21` was tested. Which Potency did it give?
Answer: Its Potency is inconclusive: 8.91 µM [inhibitor, partial curve].

Question: Which Potency does the source give for `CCOc1ccc(-n2c(SCC(=O)N3CCCCCC3)nc3c([nH]c4ccccc43)c2=O)cc1` here?
Answer: Its Potency is inconclusive: 1 µM [inhibitor, partial curve].

Question: With `CNCCCCOc1ccc(C(C)(C)C)cc1Cl` as the compound, how does the Potency read?
Answer: Its Potency is inconclusive: 12.6 µM [inhibitor, partial curve].

Question: How did the Potency turn out when `O=C(Nc1nc(-c2ccc(F)cc2)cs1)c1cccc(N2C(=O)CCC2=O)c1` was run?
Answer: The Potency was inconclusive: 35.5 µM [inhibitor, partial curve, poor fit].

Question: How did the Potency turn out when `Cc1ccc(S(=O)(=O)N2CCOC2CNC(=O)C(=O)NCc2ccc3c(c2)OCO3)cc1` (centres undefined) was run?
Answer: The Potency was inconclusive: 12.6 µM [inhibitor, partial curve].

Question: For `Cc1ccc(C)c(CSCC(=O)NCc2cccs2)c1`, which “activity change, negative = displacement” value is on record?
Answer: Its value is inactive: -18.5%.

Question: For `O=c1c2ccccc2[nH]c(=S)n1Cc1ccc2c(c1)OCO2`, which “activity change, negative = displacement” value is on record?
Answer: Its value is inactive: -3.85%.

Question: Which Potency does the source give for `CC(C)Cn1c(N)c(C(=O)COC(=O)c2ccc3ccccc3n2)c(=O)n(C)c1=O` here?
Answer: The Potency was inconclusive: 39.8 µM [inhibitor, partial curve].

Question: How did the Potency turn out when `C(=C\CSc1nnnn1-c1ccccc1)/CSc1nnnn1-c1ccccc1` was run?
Answer: The Potency was inconclusive: 3.98 µM [inhibitor, full curve].

Question: With `CC(C)(C)C1CCc2c(sc3nnn(CCOc4ccccc4)c(=O)c23)C1` (centres undefined) as the compound, how does the Potency read?
Answer: Its Potency is inconclusive: 31.6 µM [inhibitor, partial curve].

Question: Which Potency does the source give for `Cc1ccc(C)c(NC(=O)CN2C(=O)c3cccnc3Oc3ccc(C)cc32)c1` here?
Answer: Its Potency is inconclusive: 35.5 µM [inhibitor, single point].

Question: With `CCCCn1c2c(c(=O)n(C)c1=O)C(CC(=O)OCC(=O)Nc1cccc(C(F)(F)F)c1)C(=O)N2` (centres undefined) as the compound, how does the Potency read?
Answer: The Potency was inconclusive: 15.8 µM [inhibitor, partial curve].

Question: How did the Potency turn out when `CC(=O)c1ccc(Cc2ccccc2)cc1` was run?
Answer: The Potency was inconclusive: 25.1 µM [inhibitor, single point].

Question: How did the Potency turn out when `Cc1ccc(Nc2nc(CSc3nnc(-c4ccc(F)cc4)n3C)cs2)cc1` was run?
Answer: Its Potency is inconclusive: 50.1 µM [inhibitor, single point].

Question: `Cc1cccc(-c2nc(CSCC(=O)NCCc3ccc(Cl)cc3)c(C)o2)c1` was tested. Which “activity change, negative = displacement” value did it give?
Answer: The value was inactive: -10.6%.

Question: With `COC(=O)c1cc(NC(=O)Cc2ccc(OC)cc2)cc(C(=O)OC)c1` as the compound, how does the Potency read?
Answer: The Potency was inconclusive: 14.1 µM [inhibitor, partial curve].

Question: For `CC1Oc2ccccc2N(Cc2cccc(F)c2)C1=O` (centres undefined), which Potency is on record?
Answer: The Potency was inconclusive: 28.2 µM [inhibitor, single point].

Question: Which “activity change, negative = displacement” value does the source give for `Cc1cc(C)cc(CSCC(=O)N/N=C/c2ccc(OCC(=O)NCc3ccco3)cc2)c1` here?
Answer: Its value is inactive: -21.5%.

Question: How did the Potency turn out when `CCc1ccc2c(COC(=O)c3n[nH]c4ccccc34)cc(=O)oc2c1` was run?
Answer: The Potency was inconclusive: 10 µM [inhibitor, full curve].
